In the supplement of paper PMC7826260:
The other results are listed elsewhere or left out. The data describe in vitro nicking of single-stranded DNA by Rep domains (3 µM enzyme, 1 h, 37 °C); shown is the middle of each 90-letter strand. Numbers give uncut DNA relative to the enzyme-free pool, as log2; more negative means more cut, near 0 not cut, and no call is made. Because reads are shares of a total, they shift together; where an enzyme cuts many sequences, the uncut ones exceed 0.

How the values were obtained:
Assay in all cases: uncleaved DNA left, log2 of reads against the no-enzyme library (log2 ratio); higher = less cleavage (more negative = more Rep cleavage of the k-mer); sequences stand for … in CTCGTCCG…ACCGGAGA
[1] = system: T1, Rep nickase domain of Muscovy duck circovirus
T1 sequence (Rep 1-111, printed without the tag): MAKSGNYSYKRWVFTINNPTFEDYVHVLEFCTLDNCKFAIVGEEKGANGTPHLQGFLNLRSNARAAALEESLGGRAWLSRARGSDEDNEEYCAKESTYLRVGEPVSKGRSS
Method: (§1)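 A pool of 90-nt single-stranded DNAs with seven random bases just before the constant AC of the nick site (name = the seven bases) was cut by 3 µM recombinant His6-SUMO-tagged Rep nickase domain (300 nM DNA, 50 mM HEPES pH 8.0, 50 mM NaCl, 1 mM MnCl2, 1 h, 37 °C, three replicates). Uncut DNA was amplified and sequenced.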

[2] = system: T2, Rep nickase domain of banana bunchy top virus
T2 sequence (Rep 1-94, printed without the tag): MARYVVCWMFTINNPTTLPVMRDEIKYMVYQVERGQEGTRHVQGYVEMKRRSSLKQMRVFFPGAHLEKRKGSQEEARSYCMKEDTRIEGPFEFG
Method: as §1

[3] = system: T3, Rep nickase domain of cabbage leaf curl virus
T3 sequence (Rep 1-116, printed without the tag): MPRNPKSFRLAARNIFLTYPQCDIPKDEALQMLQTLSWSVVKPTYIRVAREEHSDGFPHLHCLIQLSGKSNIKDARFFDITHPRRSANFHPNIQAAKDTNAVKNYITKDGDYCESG
Method: as §1

[4] = system: T4, Rep nickase domain of chickpea chlorotic dwarf virus
T4 sequence (Rep 1-124, printed without the tag): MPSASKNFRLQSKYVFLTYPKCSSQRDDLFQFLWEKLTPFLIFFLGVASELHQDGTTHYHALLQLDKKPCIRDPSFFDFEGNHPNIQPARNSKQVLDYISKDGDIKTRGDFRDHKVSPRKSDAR
Method: as §1

[5] = system: T5, Rep nickase domain of faba bean necrotic yellows virus
T5 sequence (Rep 1-98, printed without the tag): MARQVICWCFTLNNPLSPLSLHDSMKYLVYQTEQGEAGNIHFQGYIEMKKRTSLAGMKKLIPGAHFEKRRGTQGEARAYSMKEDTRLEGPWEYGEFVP
Method: as §1

[6] = system: T6, Rep nickase domain of maize striate mosaic virus
T6 sequence (Rep 1-117, printed without the tag): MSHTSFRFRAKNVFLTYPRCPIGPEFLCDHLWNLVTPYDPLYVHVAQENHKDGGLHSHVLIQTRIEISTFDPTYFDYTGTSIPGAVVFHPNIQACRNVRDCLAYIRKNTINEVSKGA
Method: as §1

[7] = system: T7, Rep nickase domain of porcine circovirus 2
T7 sequence (Rep 2-116, printed without the tag): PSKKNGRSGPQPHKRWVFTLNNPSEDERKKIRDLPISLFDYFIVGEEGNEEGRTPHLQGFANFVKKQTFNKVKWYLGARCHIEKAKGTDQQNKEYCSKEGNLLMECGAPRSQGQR
Method: as §1

[8] = system: T8, Rep nickase domain of tomato yellow leaf curl virus
T8 sequence (Rep 1-136, printed without the tag): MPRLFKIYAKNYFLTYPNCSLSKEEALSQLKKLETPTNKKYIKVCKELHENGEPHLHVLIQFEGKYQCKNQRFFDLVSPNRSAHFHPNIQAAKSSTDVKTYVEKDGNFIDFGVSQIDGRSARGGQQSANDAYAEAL
Method: as §1

[9] = system: T9, Rep nickase domain of wheat dwarf virus
T9 sequence (Rep 1-137, printed without the tag): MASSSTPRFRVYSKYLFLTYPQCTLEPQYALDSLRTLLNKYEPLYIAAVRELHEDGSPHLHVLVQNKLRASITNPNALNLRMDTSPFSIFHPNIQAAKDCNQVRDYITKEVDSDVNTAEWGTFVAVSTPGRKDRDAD
Method: as §1

Sequence | uncleaved DNA left (log2) [1] | uncleaved DNA left (log2) [2] | uncleaved DNA left (log2) [3] | uncleaved DNA left (log2) [4] | uncleaved DNA left (log2) [5] | uncleaved DNA left (log2) [6] | uncleaved DNA left (log2) [7] | uncleaved DNA left (log2) [8] | uncleaved DNA left (log2) [9]
GTTTACA | 0.137 | 0.0983 | 0.262 | 0.748 | 0.0119 | 1.79 | 0.128 | 0.124 | 0.0579
AAAGCGC | -0.0129 | -0.0951 | -0.772 | -0.258 | -0.0361 | -1.05 | 0.102 | -0.0744 | -0.219
ATGCCGG | -0.00504 | 0.00699 | 0.218 | 0.722 | 0.0334 | 0.61 | 0.0905 | -0.13 | 0.012
GCTGGAT | -0.0644 | -0.0938 | 0.236 | 1.32 | -0.13 | 1.72 | -0.0301 | -0.263 | -0.151
AAACCTG | -0.0817 | -0.00974 | 0.0432 | 0.412 | 0.0102 | 0.979 | 0.0306 | -0.0186 | -0.00175
ACCCAAC | -0.114 | -0.0576 | -0.187 | -1.45 | 0.0649 | -0.806 | -0.105 | -0.188 | 0.00383
GCAGGGA | 0.171 | 0.145 | 0.42 | 0.919 | 0.128 | 0.474 | 0.237 | 0.127 | 0.152
CCGTTGC | -0.0808 | -0.0445 | -0.692 | 0.0182 | -0.103 | -0.738 | 0.0777 | -0.1 | -0.172
TGCGAGA | 0.0539 | -0.000416 | 0.439 | 0.67 | -0.00185 | 0.394 | 0.0168 | 0.103 | 0.141
GTAAATT | 0.024 | 0.0986 | 0.253 | 0.548 | 0.0283 | 1.67 | 0.0248 | 0.0958 | -0.0104
ACTATCC | -0.156 | -0.0463 | -0.234 | -0.143 | -0.0545 | -0.587 | -0.0204 | -0.24 | -0.0639
GATGTCC | -0.136 | -0.0021 | 0.127 | 0.406 | -0.142 | 0.715 | -0.162 | -0.0376 | -0.0402
GAGCGTG | 0.06 | 0.163 | -0.0344 | 0.634 | 0.195 | 1.34 | 0.211 | 0.119 | 0.133
CGACCCT | -0.0463 | -0.0579 | 0.215 | 0.16 | 0.00935 | 0.562 | -0.118 | -0.0358 | -0.0246
TAGCTAC | 0.0493 | -0.0179 | -0.0176 | -1.46 | 0.00815 | -0.0393 | -0.203 | 0.0576 | -0.125
AAGCGGT | 0.00524 | -0.0759 | 0.178 | 1.22 | -0.135 | 1.47 | -0.147 | -0.207 | -0.0534

Sequence | uncleaved DNA left (log2) [1] | uncleaved DNA left (log2) [2] | uncleaved DNA left (log2) [3] | uncleaved DNA left (log2) [4] | uncleaved DNA left (log2) [5] | uncleaved DNA left (log2) [6] | uncleaved DNA left (log2) [7] | uncleaved DNA left (log2) [8] | uncleaved DNA left (log2) [9]
GCCGTCC | -0.0787 | -0.0319 | 0.182 | 0.308 | -0.0279 | 0.0603 | 0.0526 | -0.132 | 0.0632
GACAGTA | -0.000621 | 0.0402 | 0.394 | 0.476 | -0.00384 | 1.07 | -0.00995 | -0.0258 | 0.0786
GATAGAC | 0.045 | 0.143 | 0.621 | 1.35 | 0.0191 | 1.52 | 0.22 | 0.0911 | 0.146
ATGAAAG | 0.112 | 0.0599 | -0.69 | -0.359 | -0.025 | -1.18 | 0.226 | 0.13 | -0.0645
TGTCAAG | 0.000405 | -0.0316 | -0.566 | -0.642 | -0.0334 | -1.12 | 0.187 | 0.0751 | 0.0623
CTACGTC | 0.0351 | -0.0215 | 0.0153 | -0.867 | -0.164 | -0.756 | -0.0354 | -0.128 | -0.0466
GCACGGA | -0.135 | -0.0199 | 0.016 | 0.446 | -0.0472 | 0.0186 | -0.0353 | -0.0865 | -0.157
CCGCTTG | 0.127 | -0.0155 | -0.0784 | -0.296 | 0.175 | -0.297 | 0.423 | 0.258 | -0.0358
CAACTTA | 0.00372 | 0.0478 | -0.203 | -2.57 | 0.0341 | -0.674 | -0.168 | -0.00724 | 0.0183
AATTAGG | 0.17 | 0.0952 | 0.427 | 1.26 | 0.0815 | 0.943 | 0.208 | 0.0212 | 0.241
CTCTAAA | 0.0828 | 0.00477 | -0.15 | -0.108 | 0.0286 | -0.658 | 0.0496 | -0.0449 | 0.0766
AGAATGC | -0.0175 | -0.043 | -0.568 | -0.497 | -0.112 | -1.08 | 0.0947 | 0.0497 | 0.00572
ACCAGTA | 0.0398 | 0.129 | -0.297 | -1.15 | 0.0194 | -1.13 | 0.103 | -0.0242 | 0.0293
ATACCCT | -0.0683 | 0.0762 | 0.298 | -0.487 | 0.138 | 0.425 | -0.256 | 0.0146 | 0.0437
TCGACAT | 0.0272 | 0.103 | 0.797 | 1.83 | 0.113 | 2.2 | 0.249 | 0.129 | 0.199
TCTGAAC | 0.138 | 0.0121 | 0.000301 | 0.376 | 0.00571 | 0.699 | 0.192 | 0.00553 | 0.0611
